According to the supplement of paper PMC7125110:
± gives the standard error. This sample is rich in variants without activity.

B1: glmS ribozyme (parent)
chain: AUAAAAGCGCCAGAACUACAGAAAUGUAGUUGACGAGGAGGAGGUUUAUCGAAUUUUCGGCGGAUGCCUCCAAA

Variants of: B1
Assay: self-cleavage kobs at 2500 uM GlcN6P; higher = faster cleavage; RNA array
Settings: with glucosamine-6-phosphate
In short: (§1)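 Using a hybridised Cy3 probe at 37 °C, barcoded ribozyme variants transcribed in situ by E. coli RNA polymerase on sequenced MiSeq chips were monitored across tiles imaged over ~14 h. The flow contained glucosamine-6-phosphate from 40 μM to 10 mM in HEPES/KCl/Mg(OAc)2 buffer. Signals were normalised to baseline and to non-cleaving reference variants before per-tile medians were fit to one- or two-exponential decays to yield kobs. Weighted Michaelis–Menten fits across concentrations gave kcat and KM.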

C16A G40C A42U and C16G G38C C58U A64G C70G cannot be ordered by “self-cleavage kobs at 2500 uM GlcN6P” value: less than 1e-05 s⁻¹ for the first, less than 1e-05 s⁻¹ for the second.

U30G G43U A52G C67A U69G and G13C C61A C68G cannot be ordered by “self-cleavage kobs at 2500 uM GlcN6P” value: less than 1e-05 s⁻¹ for the first, less than 1e-05 s⁻¹ for the second.

A36U G40U A64C and A42U A52U U55C C70G cannot be ordered by “self-cleavage kobs at 2500 uM GlcN6P” value: less than 1e-05 s⁻¹ for the first, less than 1e-05 s⁻¹ for the second.

G40A C61U A64C U65A and G13C G41A U65A cannot be ordered by “self-cleavage kobs at 2500 uM GlcN6P” value: less than 1e-05 s⁻¹ for the first, less than 1e-05 s⁻¹ for the second.

G38A U54C C68U and C16U U45A G62C cannot be ordered by “self-cleavage kobs at 2500 uM GlcN6P” value: less than 1e-05 s⁻¹ for the first, less than 1e-05 s⁻¹ for the second.

A14C C16A G63U and A15G U31C A36U U55G U57A G60A cannot be ordered by “self-cleavage kobs at 2500 uM GlcN6P” value: less than 1e-05 s⁻¹ for the first, less than 1e-05 s⁻¹ for the second.

C11G G29A C67U and A12C A36G G44C U54A cannot be ordered by “self-cleavage kobs at 2500 uM GlcN6P” value: less than 1e-05 s⁻¹ for the first, less than 1e-05 s⁻¹ for the second.

A36U A42G G63U and C16U G35C G63U cannot be ordered by “self-cleavage kobs at 2500 uM GlcN6P” value: less than 1e-05 s⁻¹ for the first, less than 1e-05 s⁻¹ for the second.

G13U A42C U69A and C11U G29U A42C cannot be ordered by “self-cleavage kobs at 2500 uM GlcN6P” value: less than 1e-05 s⁻¹ for the first, less than 1e-05 s⁻¹ for the second.

G35C A39U A48U C61A G66U and A15G G32A G35U A52C cannot be ordered by “self-cleavage kobs at 2500 uM GlcN6P” value: less than 1e-05 s⁻¹ for the first, less than 1e-05 s⁻¹ for the second.

First: C34G G38U U54A C71G
Second: G29U G38U G66U C68A U69G
The “self-cleavage kobs at 2500 uM GlcN6P” value of the first is lower: less than 1e-05 s⁻¹ for the first, 0.000147 ± 5.8e-05 s⁻¹ for the second.

C11G G32C G59C G66A and G41A C50U C67U cannot be ordered by “self-cleavage kobs at 2500 uM GlcN6P” value: less than 1e-05 s⁻¹ for the first, less than 1e-05 s⁻¹ for the second.

A15U A52G U57G G62C A64C and G32C A33C A36C U65G cannot be ordered by “self-cleavage kobs at 2500 uM GlcN6P” value: less than 1e-05 s⁻¹ for the first, less than 1e-05 s⁻¹ for the second.

C34U A42U U49G and G13U A36U G41C cannot be ordered by “self-cleavage kobs at 2500 uM GlcN6P” value: less than 1e-05 s⁻¹ for the first, less than 1e-05 s⁻¹ for the second.

C16G G37C A53G G62C U69C and G35A U69G cannot be ordered by “self-cleavage kobs at 2500 uM GlcN6P” value: less than 1e-05 s⁻¹ for the first, less than 1e-05 s⁻¹ for the second.

C16U G29A G41U G62A and A15U A33G A48G G62A cannot be ordered by “self-cleavage kobs at 2500 uM GlcN6P” value: less than 1e-05 s⁻¹ for the first, less than 1e-05 s⁻¹ for the second.

G13A G44U C71A and A33U C61U C67A cannot be ordered by “self-cleavage kobs at 2500 uM GlcN6P” value: less than 1e-05 s⁻¹ for the first, less than 1e-05 s⁻¹ for the second.

C34U A39U G41C U69G and C16A G43C G63A A64U cannot be ordered by “self-cleavage kobs at 2500 uM GlcN6P” value: less than 1e-05 s⁻¹ for the first, less than 1e-05 s⁻¹ for the second.

G38C A53U and G35U G41A U54C cannot be ordered by “self-cleavage kobs at 2500 uM GlcN6P” value: less than 1e-05 s⁻¹ for the first, less than 1e-05 s⁻¹ for the second.

A14G G60C G62A and G37A G62C A64U cannot be ordered by “self-cleavage kobs at 2500 uM GlcN6P” value: less than 1e-05 s⁻¹ for the first, less than 1e-05 s⁻¹ for the second.

G40A G43A U69G C70G and C16U A36G A39U G62A C67G cannot be ordered by “self-cleavage kobs at 2500 uM GlcN6P” value: less than 1e-05 s⁻¹ for the first, less than 1e-05 s⁻¹ for the second.

A14G A42G U47A U49A U55C and A36C G44U A48U C68G cannot be ordered by “self-cleavage kobs at 2500 uM GlcN6P” value: less than 1e-05 s⁻¹ for the first, less than 1e-05 s⁻¹ for the second.

A15C G35U U46G C71U and A12G G35U A39C cannot be ordered by “self-cleavage kobs at 2500 uM GlcN6P” value: less than 1e-05 s⁻¹ for the first, less than 1e-05 s⁻¹ for the second.

Going from A39G U55C A64G to G29U U54A C70A, the “self-cleavage kobs at 2500 uM GlcN6P” value falls from 0.00694 ± 0.0013 s⁻¹ to 6.05e-05 ± 3e-05 s⁻¹ (110-fold).

C34A G35U U55G and U31A G41C C58G cannot be ordered by “self-cleavage kobs at 2500 uM GlcN6P” value: less than 1e-05 s⁻¹ for the first, less than 1e-05 s⁻¹ for the second.

G37A A39C G40C G41A U45C G51U C58G and U31G G40A G41U A53C U54A C58G C67U cannot be ordered by “self-cleavage kobs at 2500 uM GlcN6P” value: less than 1e-05 s⁻¹ for the first, less than 1e-05 s⁻¹ for the second.

C11U G44C U54A U69C and C16A U46G C61G cannot be ordered by “self-cleavage kobs at 2500 uM GlcN6P” value: less than 1e-05 s⁻¹ for the first, less than 1e-05 s⁻¹ for the second.

Going from A14C U46C C50A U57C C61U U65C to A14C U45G C68U, the “self-cleavage kobs at 2500 uM GlcN6P” value rises from less than 1e-05 s⁻¹ to 3.4e-05 ± 1.6e-05 s⁻¹.

First: A33U C34A A42U G51C
Second: G13C U55A
The “self-cleavage kobs at 2500 uM GlcN6P” value of the first is lower: less than 1e-05 s⁻¹ for the first, 6.85e-05 ± 1.6e-05 s⁻¹ for the second.

Going from G13U A52C C70U to A15G A64C C71U, the “self-cleavage kobs at 2500 uM GlcN6P” value rises from less than 1e-05 s⁻¹ to 7.46e-05 ± 1.9e-05 s⁻¹.

G35A G43A A53G C67U and G29C G62C U65A cannot be ordered by “self-cleavage kobs at 2500 uM GlcN6P” value: less than 1e-05 s⁻¹ for the first, less than 1e-05 s⁻¹ for the second.

G13C C50U A52G and G13U U31G G37C A48C cannot be ordered by “self-cleavage kobs at 2500 uM GlcN6P” value: less than 1e-05 s⁻¹ for the first, less than 1e-05 s⁻¹ for the second.

Going from U31G G40A A48C to A15U C16U C58G C70U, the “self-cleavage kobs at 2500 uM GlcN6P” value rises from less than 1e-05 s⁻¹ to 7.87e-05 ± 2.1e-05 s⁻¹.

Compared with A36U G37C G59C, A14C U45A A64U is higher in “self-cleavage kobs at 2500 uM GlcN6P” value: less than 1e-05 s⁻¹ for the first, 4.3e-05 ± 1.9e-05 s⁻¹ for the second.

G35A C50U G60U C67A and A39G G41U U47A U55C G60A C68U cannot be ordered by “self-cleavage kobs at 2500 uM GlcN6P” value: less than 1e-05 s⁻¹ for the first, less than 1e-05 s⁻¹ for the second.

Going from G32U G40C G43U C50U to A12G U56G C70G, the “self-cleavage kobs at 2500 uM GlcN6P” value rises from less than 1e-05 s⁻¹ to 0.000113 ± 3e-05 s⁻¹.

G41C U47C C61G C67U and U31C G35U A42G cannot be ordered by “self-cleavage kobs at 2500 uM GlcN6P” value: less than 1e-05 s⁻¹ for the first, less than 1e-05 s⁻¹ for the second.

A36U U55G C61U and G32U G35U C50U cannot be ordered by “self-cleavage kobs at 2500 uM GlcN6P” value: less than 1e-05 s⁻¹ for the first, less than 1e-05 s⁻¹ for the second.

G35C A53C and A12C A42U U65A C70A cannot be ordered by “self-cleavage kobs at 2500 uM GlcN6P” value: less than 1e-05 s⁻¹ for the first, less than 1e-05 s⁻¹ for the second.

A33G G60U A64G U69A and G32C A36G U49A A53G C68U cannot be ordered by “self-cleavage kobs at 2500 uM GlcN6P” value: less than 1e-05 s⁻¹ for the first, less than 1e-05 s⁻¹ for the second.

Variants of: B1
Assay: self-cleavage kobs at 10000 uM GlcN6P; higher = faster cleavage; RNA array
Settings: with glucosamine-6-phosphate
In short: as §1

C34U A42U U49G and G13U A36U G41C cannot be ordered by “self-cleavage kobs at 10000 uM GlcN6P” value: less than 1e-05 s⁻¹ for the first, less than 1e-05 s⁻¹ for the second.

C16G G37C A53G G62C U69C and G38C A53U cannot be ordered by “self-cleavage kobs at 10000 uM GlcN6P” value: less than 1e-05 s⁻¹ for the first, less than 1e-05 s⁻¹ for the second.

Going from A39G G41U U47A U55C G60A C68U to A12G U56G C70G, the “self-cleavage kobs at 10000 uM GlcN6P” value rises from less than 1e-05 s⁻¹ to 7.52e-05 ± 2e-05 s⁻¹.

G32U G35U C50U was tested, and the “self-cleavage kobs at 10000 uM GlcN6P” value was less than 1e-05 s⁻¹.
